Counter-ions that a name gives are not always drawn. The list shows a part of the results. Cut-off read from the data, not from the text of the source: active = 0.5 or less and inactive = the rest. Many values rest on one well or one pass, so single values are uncertain.
Key:
Settings in all cases: 50 µM; 24 h
[1] = system: HeLa VPS33A reporter cells; test: relative cell viability (CellMask signal) vs DMSO (fraction of DMSO); higher = less cytotoxic;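 note: primary screen of an FDA-approved drug library in HeLa reporter cells in 96-well format, CellMask signal normalized to DMSO-treated wells set as 1, under 0.5 deemed highly cytotoxic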
[2] = system: HeLa VPS33A R498W KI + HA-SDC1-FLAG; test: relative GAG core protein HA-SDC1 amount per cell number vs DMSO (fraction of DMSO); higher = more SDC1 (GAG core protein);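 note: HA-SDC1 level read out by In-Cell Western staining with an anti-HA antibody against the N-terminal tag, screening FDA-approved library drugs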
[3] = system: HeLa VPS33A KO + NLuc-VPS33A R498W; test: relative mutant VPS33A R498W amount (NanoLuc luminescence) vs DMSO (fraction of DMSO); HeLa model of a glycosaminoglycan (GAG) storage disease; KI is knock-in and KO knock-out; SDC1 is syndecan 1; higher = higher mutant VPS33A level;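 note: screen of an FDA-approved drug library, NanoLuc luminescence read after lysing the treated cells, taken as a measure of mutant VPS33A protein stability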

Compound | relative cell viability [1] | relative GAG core protein HA-SDC1 amount per cell number [2] | relative mutant VPS33A R498W amount [3]
O=c1cc(-c2ccc(O)cc2)oc2cc(O)cc(O)c12 [Apigenin] | 1.11 | active: 0.49 | 2.68
C[C@H]1CNCCCN1S(=O)(=O)c1cccc2cncc(F)c12 | 1.12 | inactive: 0.808 | 0.493
N=C(N)NC(=O)Cc1c(Cl)cccc1Cl [Guanfacine hydrochloride] | 1.29 | inactive: 0.966 | 0.616
O=c1cc[nH]c(=S)[nH]1 [2-Thiouracil] | 1.1 | inactive: 0.833 | 1.39
FC(F)(F)c1ccc(CNc2ccc(Cc3c[nH]c4ncc(Cl)cc34)cn2)cn1 [Pexidartinib (PLX3397)] | 1.15 | inactive: 1.11 | 0.635
CCOC(=O)C1=C(C)NC(C)=C(C(=O)OC)C1c1cccc([N+](=O)[O-])c1 (stereo not given) [Nitrendipine] | 1.07 | inactive: 1.28 | 1.02
OC1OC[C@H](O)[C@H](O)[C@H]1O (mixture of isomers) [L-Arabinose] | 1.09 | inactive: 0.84 | 1.36
CO[C@H]1/C=C/O[C@@]2(C)Oc3c(C)c(O)c4c(O)c(c5c(nc6cc(C)ccn65)c4c3C2=O)NC(=O)/C(C)=C\C=C\[C@H](C)[C@H](O)[C@@H](C)[C@@H](O)[C@@H](C)[C@H](OC(C)=O)[C@@H]1C [Rifaximin (Xifaxan)] | 1.04 | active: 0.18 | 2.52
NCCc1c[nH]cn1 [histamine] | 1.05 | inactive: 1.06 | 1.49
COc1cc2c(cc1Cc1cccc(Cl)c1F)c(=O)c(C(=O)O)cn2[C@H](CO)C(C)C [Elvitegravir (GS-9137)] | 0.994 | active: 0.435 | 1.22

Reference: the supplement of paper PMC12355420
